This sample is rich in variants without activity.
B1: TPR 5TU (parent)
chain: GGAUCUUCUCGAUCUAACAAAAAAGACAAAUCUGCCACAAAGCUUGAGAGCAUCUUCGGAUGCAGAGGCGGCAGCCUUCGGUGGCGCGAUAGCGCCAACGUUCUCAACUAUGACACGCAAAACGCGUGCUCCGUUGAAUGGAGUUUAUCAUG

Variants of: B1
Test: polymerase ribozyme fitness, log enrichment relative to wild type (log ratio); higher = more active; in vitro selection for triplet polymerase activity
Procedure, shortened: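 Each subunit of a heterodimeric triplet polymerase ribozyme was mutagenized into a library by PCR, transcribed, and subjected to one round of in vitro selection, run in triplicate. Libraries were annealed with a biotinylated primer, the partner subunit and triplets, incubated frozen at −7 °C, and extended constructs were gel-excised, captured on streptavidin beads and recovered by RT-PCR. Input and output libraries were sequenced on Illumina, keeping genotypes with ≥10 input reads and ≥1 read per output. Fitness is log base 2 of genotype enrichment divided by wild-type enrichment, from inverse-variance-weighted replicate averages.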

Variant	polymerase ribozyme fitness (log ratio)
GGAUCUUCUCGAUCUAACAAAAAAGACAAAUCUGCCACAAAGCUUGAGAGCAUCUUCGGAUGCAGAGGCGGCAGCCUUCGGUGGCGCGAUAGCGCGAACGUUCUCAGCUAUGACACGGAAAACGCGUGCUCCGUUGAAUGGAGUUUAUCCUG [C96G A107G C118G A150C]	≤ -4.2
GGAUCUUCUCGAUCUAACAAAAAAGACAAAUCUGCCACAAAGCUUGAGAGCAUCUUCGGAUGCAGAGGCGGCAGCCUUCGGUGGCGCGAUAGCGCGAACGUUCUCAACUAUGACACGCACAACGCGUGCUCCGUUGAAUGGAGUUUAUCAUG [C96G A120C]	0.168
GGAUCUUCUCGAUCUAACAAAAAAGACAAAUCUGCCACAAAGCUUGAGAGCAUCUUCGGAUGCAGAGGCGGCAGCCUUCGGUGGCGCGAUAGCGCAAACGUUCUCAACUAUGACACGCAAAACGCGUGCUCCGUUGAAUGGAGUAUAUCAUG [C96A U145A]	0.431
GGAUCUUCUCGAUCUAACAAAAAAGACAAAUCUGCCACAAAGCUUGAGAGCAUCUUCGGAUGCAGAGGCGGCAGCCUUCGGUGGCGCGAUAGCGCGAACGUUCUCAACUAUGACAAGCAAAACGCGUGCUCCGUUGACUGGAGUUUCUCAUG [C96G C116A A138C A147C]	-3.36
GGAUCUUCUCGAUCUAACAAAAAAGACAAAUCUGCCACAAAGCUUGAGAGCAUCUUCGGAUGCAGAGGCGGCAGCCUUCGGUGGCGCGAUAGCGCAAACGUUCUCAACUAUGACACGCAAAACGGGUGCUCCGUUGAAUGGAGUUUAUCAUG [C96A C125G]	-0.535
GGAUCUUCUCGAUCUAACAAAAAAGACAAAUCUGCCACAAAGCUUGAGAGCAUCUUCGGAUGCAGAGGCGGCAGCCUUCGGUGGCGCGAUAGCGCGAACGUUCUCAACUAUGACACGCAAAACGCGUGCUCCGUUGUAUGGAGUUUAUCAUG [C96G A137U]	-4
GGAUCUUCUCGAUCUAACAAAAAAGACAAAUCUGCCACAAAGCUUGAGAGCAUCUUCGGAUGCAGAGGCGGCAGCCUUCGGUGGCGCGAUAGCGCAAACGUUCUCAACUAUGACACGCAAAACGCGUGCUCCGAUGAAUGGAGUUUAUCAUG [C96A U134A]	-2.73
GGAUCUUCUCGAUCUAACAAAAAAGACAAAUCUGCCACAAAGCUUGAGAGCAUCUUCGGAUGCAGAGGCGGCAGCCUUCGGUGGCGCGAUAGCGCGUACGUUCUCAACUAUGACACGAAAAACGCGUGCUCCGUUGAAUGGAGUUUAUCAUG [C96G A97U C118A]	-3.08
GGAUCUUCUCGAUCUAACAAAAAAGACAAAUCUGCCACAAAGCUUGAGAGCAUCUUCGGAUGCAGAGGCGGCAGCCUUCGGUGGCGCGAUAGCGCAAACGUUCUCAACUAUGACACGCAAAACGCGUGCUCCGCUGAGUGCAGUUUAUCAUG [C96A U134C A138G G141C]	-4.07
GGAUCUUCUCGAUCUAACAAAAAAGACAAAUCUGCCACAAAGCUUGAGAGCAUCUUCGGAUGCAGAGGCGGCAGCCUUCGGUGGCGCGAUAGCGCAAACGUUCUCAACUAUGACACGCAAAACGCGUGCUCCGUUGAAUGGAGUUUAUCCUG [C96A A150C]	-3.12
GGAUCUUCUCGAUCUAACAAAAAAGACAAAUCUGCCACAAAGCUUGAGAGCAUCUUCGGAUGCAGAGGCGGCAGCCUUCGGUGGCGCGAUAGCGCAAACGUUCUCAACUAUGACACGCAAAACGCGUGCUCCGUUGAAUGGAGUUAAACAUG [C96A U146A U148A]	-4.17
GGAUCUUCUCGAUCUAACAAAAAAGACAAAUCUGCCACAAAGCUUGAGAGCAUCUUCGGAUGCAGAGGCGGCAGCCUUCGGUGGCGCGAUAGCGCAAACGUUCUCAACUAUGACAUGCAAAACGCGUGCUCCGUUUAAUGGAGUUUAUCGUG [C96A C116U G136U A150G]	-4.06
GGAUCUUCUCGAUCUAACAAAAAAGACAAAUCUGCCACAAAGCUUGAGAGCAUCUUCGGAUGCAGAGGCGGCAGCCUUCGGUGGCGCGAUAGCGCAAACGUUCUCAACUAUGACACGCAAAACGCGUGCUCCCUUGCAUGGAGUUUAUCAUG [C96A G133C A137C]	≤ -4.2
GGAUCUUCUCGAUCUAACAAAAAAGACAAAUCUGCCACAAAGCUUGAGAGCAUCUUCGGAUGCAGAGGCGGCAGCCUUCGGUGGCGCGAUAGCGCGAACGUUCUCGAGUAUGACACGCAAAACGCGUGCUCCGUUGAAUGGAGUUUAUCAUG [C96G A106G C108G]	≤ -4.2
GGAUCUUCUCGAUCUAACAAAAAAGACAAAUCUGCCACAAAGCUUGAGAGCAUCUUCGGAUGCAGAGGCGGCAGCCUUCGGUGGCGCGAUAGCGCGAACGUUCUCAACUAUGAAACGCAAAACGCGUGCUCCGUUGAAUGGAGUUUAUCAUG [C96G C114A]	-4.19
GGAUCUUCUCGAUCUAACAAAAAAGACAAAUCUGCCACAAAGCUUGAGAGCAUCUUCGGAUGCAGAGGCGGCAGCCUUCGGUGGCGCGAUAGCGCGAACGUUGUCAACUAUGACACGCAAAACUCGUGCUCCGUUGAAUGUAGUUUAUCAUG [C96G C103G G124U G141U]	≤ -4.2
GGAUCUUCUCGAUCUAACAAAAAAGACAAAUCUGCCACAAAGCUUGAGAGCAUCUUCGGAUGCAGAGGCGGCAGCCUUCGGUGGCGCGAUAGCGCGAACGUUCUCAACUAUGGCAAGCAAAACGCGUGCUCCGUUGAAUGGAGUUUUUCAUG [C96G A113G C116A A147U]	≤ -4.2
GGAUCUUCUCGAUCUAACAAAAAAGACAAAUCUGCCACAAAGCUUGAGAGCAUCUUCGGAUGCAGAGGCGGCAGCCUUCGGUGGCGCGAUAGCGCAAAGGUUCUCAAGUAUGACACGCAAAACGCGUGCUCCGUUGAAUGGAGUUUAUCAUG [C96A C99G C108G]	≤ -4.2
GGAUCUUCUCGAUCUAACAAAAAAGACAAAUCUGCCACAAAGCUUGAGAGCAUCUUCGGAUGCAGAGGCGGCAGCCUUCGGUGGCGCGAUAGCGCGAACGUUCUCAACUAUGACACGCAAAACGCGUGCUCCGUUGACUGGAGUUUAUCAUG [C96G A138C]	≤ -4.2

Reference: the RNAGym collection of RNA variant scans (doi:10.1073/pnas.2313332121)
